Assay results as given in article PMC4336329 (PLoS ONE, 2015).
Hit rate of the full screen: of about 310,000 compounds, about 14,000 (4.5%) showed an effect of 50% or more. The effect is printed as a negative number. Some of the results follow.
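Also: peak tail current of the secondary pulse compared with the same well before compound.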

What follows are molecules tested against human ether-à-go-go-related gene (hERG) potassium channel (human, UniProt Q12809) (assay: primary screen, population patch clamp on CHO cells stably expressing hERG).
Sequence of human ether-à-go-go-related gene (hERG) potassium channel (Q12809 whole entry, looked up): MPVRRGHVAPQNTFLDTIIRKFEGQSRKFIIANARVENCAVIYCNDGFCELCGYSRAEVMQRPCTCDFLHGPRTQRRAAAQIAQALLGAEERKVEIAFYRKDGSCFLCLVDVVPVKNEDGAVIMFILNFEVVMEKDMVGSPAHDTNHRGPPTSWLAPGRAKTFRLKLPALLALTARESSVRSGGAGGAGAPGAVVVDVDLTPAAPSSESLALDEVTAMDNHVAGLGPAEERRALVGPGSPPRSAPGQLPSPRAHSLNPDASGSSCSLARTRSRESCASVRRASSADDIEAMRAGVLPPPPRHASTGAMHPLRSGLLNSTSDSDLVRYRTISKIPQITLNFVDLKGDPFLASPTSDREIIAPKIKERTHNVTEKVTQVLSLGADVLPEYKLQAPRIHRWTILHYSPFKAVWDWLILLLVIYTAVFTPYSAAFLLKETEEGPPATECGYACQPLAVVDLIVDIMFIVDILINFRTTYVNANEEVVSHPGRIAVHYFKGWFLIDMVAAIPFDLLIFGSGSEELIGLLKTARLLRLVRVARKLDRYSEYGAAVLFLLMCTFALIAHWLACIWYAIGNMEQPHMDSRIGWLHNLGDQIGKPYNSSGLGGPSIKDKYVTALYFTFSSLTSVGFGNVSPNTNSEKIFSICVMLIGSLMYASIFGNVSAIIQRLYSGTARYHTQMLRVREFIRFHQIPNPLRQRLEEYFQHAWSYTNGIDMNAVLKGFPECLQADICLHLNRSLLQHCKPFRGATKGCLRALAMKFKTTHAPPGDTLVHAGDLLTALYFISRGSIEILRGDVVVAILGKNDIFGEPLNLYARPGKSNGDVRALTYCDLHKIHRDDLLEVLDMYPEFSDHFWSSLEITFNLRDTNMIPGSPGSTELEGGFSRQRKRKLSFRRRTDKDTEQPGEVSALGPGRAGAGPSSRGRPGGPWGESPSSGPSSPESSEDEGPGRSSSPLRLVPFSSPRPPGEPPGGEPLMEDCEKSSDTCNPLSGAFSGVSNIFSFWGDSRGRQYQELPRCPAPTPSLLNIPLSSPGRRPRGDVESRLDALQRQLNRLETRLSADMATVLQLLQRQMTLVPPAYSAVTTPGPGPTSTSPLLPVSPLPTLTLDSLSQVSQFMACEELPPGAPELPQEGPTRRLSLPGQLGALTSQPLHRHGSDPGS
`COc1cc(/C=C(\C#N)C(=O)Nc2ccccc2C(=O)O)cc(Cl)c1OC` was tested, and the “hERG current change (%, negative = inhibition) at 10uM” value was 39.9%.
With `O=C(O)Cn1c(CC(=O)N2CCCC2)nc2ccccc21` the “hERG current change (%, negative = inhibition) at 10uM” value was 5.45%.
For `COc1ccc(CCNC(=O)CN(c2ccccc2)S(C)(=O)=O)cc1OC`, the “hERG current change (%, negative = inhibition) at 10uM” value was -8.06%.
For `O=C(O)COc1ccc(-c2nnn(Cc3ccccc3F)n2)cc1`, the “hERG current change (%, negative = inhibition) at 10uM” value was 16.9%.
`O=C(/C=C/c1cccs1)NNC(=O)c1ccccc1` was tested, and the “hERG current change (%, negative = inhibition) at 10uM” value was 9.29%.
In the case of `COc1ccccc1OCC(=O)Nc1cccc(C(=O)N2CCOCC2)c1`, the “hERG current change (%, negative = inhibition) at 10uM” value was -0.619%.
`Cc1ccc(S(=O)(=O)N2CCN(C(C(=O)Nc3ccc(F)cc3)c3ccccc3)CC2)cc1` (stereo not shown) was tested, and the “hERG current change (%, negative = inhibition) at 10uM” value was -3.54%.
For `Cc1cc(C(=O)CSc2nnc(-c3ccncc3)n2-c2ccccc2)c(C)n1C`, the “hERG current change (%, negative = inhibition) at 10uM” value was -26.6%.
`O=C1c2cccc([N+](=O)[O-])c2C(=O)N1C1CCCCC1` was tested, and the “hERG current change (%, negative = inhibition) at 10uM” value was 12.7%.
For `Cc1ccc2oc(-c3cc(NC(=O)c4ncn[nH]4)ccc3O)nc2c1`, the “hERG current change (%, negative = inhibition) at 10uM” value was 20.3%.
`Cc1cc(SCC(=O)c2cc(C)n(C)c2C)nc2ccccc12` was tested, and the “hERG current change (%, negative = inhibition) at 10uM” value was 10.9%.
With `COc1ccccc1C1CCN(Cc2c(C)[nH]c3ccccc23)CC1` the “hERG current change (%, negative = inhibition) at 10uM” value was -64.4%.
With `COCC1CCN(Cc2nc(-c3cccs3)no2)C1` (stereo not shown) the “hERG current change (%, negative = inhibition) at 10uM” value was -0.482%.
`CC(C)CCNC(=O)C(c1ccc(O)cc1)N(Cc1cccs1)C(=O)C1COc2ccccc2O1` (stereo not shown) was tested, and the “hERG current change (%, negative = inhibition) at 10uM” value was 5.53%.
With `Cc1ccsc1C(=O)Nc1ccc(S(=O)(=O)N2CCOCC2)cc1` the “hERG current change (%, negative = inhibition) at 10uM” value was 0.841%.
In the case of `COc1ccccc1NC(=O)Nc1c(C)nn(C)c1C`, the “hERG current change (%, negative = inhibition) at 10uM” value was 9.61%.
With `COc1ccc([N+](=O)[O-])cc1N(CC(=O)N(C)C)S(C)(=O)=O` the “hERG current change (%, negative = inhibition) at 10uM” value was 17.3%.
In the case of `COc1ccc(CCNc2nc(C)cc(C)n2)cc1OC.Cl`, the “hERG current change (%, negative = inhibition) at 10uM” value was 17.4%.
With `CCOC(=O)c1ccc(CSC(=N)N)o1` the “hERG current change (%, negative = inhibition) at 10uM” value was 17.2%.
With `Cc1cc(C)nc(CCNC(=O)C2CCC(=O)N(Cc3ccccc3F)C2)n1` (stereo not shown) the “hERG current change (%, negative = inhibition) at 10uM” value was 15.7%.
`Cl.N=c1n(CCO)c2ccccc2n1Cc1ccccc1` was tested, and the “hERG current change (%, negative = inhibition) at 10uM” value was -25.1%.
With `Cc1cccc(C)c1NC(=O)C(=O)NCC1CCCN1S(=O)(=O)c1ccccc1` (stereo not shown) the “hERG current change (%, negative = inhibition) at 10uM” value was -24.3%.
In the case of `CCN(CC)C(=O)CSc1nc2ccccc2c(=O)n1CC1CCCCC1`, the “hERG current change (%, negative = inhibition) at 10uM” value was -61%.
With `COC(=O)C1=C(c2ccc(-c3ccccc3)c(F)c2)C[C@@H]2CC[C@H]1N2C(=O)N1CCC(O)CC1` the “hERG current change (%, negative = inhibition) at 10uM” value was -9.71%.
For `O=C(CCC1COc2ccccc2O1)NC1CCCCC1` (stereo not shown), the “hERG current change (%, negative = inhibition) at 10uM” value was -8.97%.
In the case of `Cc1onc(-c2c(F)cccc2Cl)c1C(=O)OCn1nnc2ccccc2c1=O`, the “hERG current change (%, negative = inhibition) at 10uM” value was 1.82%.
With `COc1ccc(NC(=O)COC(=O)Cn2c(C)nc3ccccc32)cc1OC` the “hERG current change (%, negative = inhibition) at 10uM” value was 13.3%.
With `COc1ccc2c(c1OC)C(=O)N(c1nc(SC)n[nH]1)C2=O` the “hERG current change (%, negative = inhibition) at 10uM” value was 18.3%.
For `Cc1cccc(NC(=S)NNC(=O)c2ccco2)c1`, the “hERG current change (%, negative = inhibition) at 10uM” value was 6.66%.
`CCOc1c2ccc(C(=O)NCc3ccc(C)cc3)cc2nn1CCOC` was tested, and the “hERG current change (%, negative = inhibition) at 10uM” value was 9.13%.
`CCCn1c(C(O)c2cc(OC)ccc2OC)nc2ccccc21` (stereo not shown) was tested, and the “hERG current change (%, negative = inhibition) at 10uM” value was -2.45%.
With `COc1cc(NC(=O)COC(=O)CNC(=O)C23CC4CC(CC(C4)C2)C3)cc(OC)c1` the “hERG current change (%, negative = inhibition) at 10uM” value was -6.11%.
With `Brc1ccc(OCCOCCOc2cccc3cccnc23)cc1` the “hERG current change (%, negative = inhibition) at 10uM” value was -6.05%.
For `CN(C)Cc1c(C(=O)N/N=C/c2cccnc2)nnn1-c1nonc1N`, the “hERG current change (%, negative = inhibition) at 10uM” value was 12.3%.
`CCCCSc1nc(C)[nH]c1[N+](=O)[O-]` was tested, and the “hERG current change (%, negative = inhibition) at 10uM” value was 12.4%.
`O=C(CNC(=O)c1ccc(Cl)cc1)OCn1nnc2ccccc2c1=O` was tested, and the “hERG current change (%, negative = inhibition) at 10uM” value was 9.92%.
`Clc1cccc(CNCCc2c[nH]c3ccccc23)c1.O=C(O)C(=O)O` was tested, and the “hERG current change (%, negative = inhibition) at 10uM” value was -14%.
`CCCc1cc(=O)n2[nH]c(C)nc2n1` was tested, and the “hERG current change (%, negative = inhibition) at 10uM” value was 8.13%.
In the case of `Cc1ccc(NC(=O)N2CCC(C(N)=O)CC2)cc1`, the “hERG current change (%, negative = inhibition) at 10uM” value was 5.62%.
For `COCCn1c(SCC(=O)NCCc2ccccc2)nc2c([nH]c3ccccc32)c1=O`, the “hERG current change (%, negative = inhibition) at 10uM” value was 12.3%.
In the case of `COc1ccccc1NC(=O)NC1(C(=O)N2CCC(C)CC2)CCCCC1`, the “hERG current change (%, negative = inhibition) at 10uM” value was 18.3%.
With `O=[N+]([O-])c1ccc(-c2nn(-c3ccccc3)cc2/C=N/n2c(-c3cccs3)n[nH]c2=S)cc1` the “hERG current change (%, negative = inhibition) at 10uM” value was 20.3%.
In the case of `CCOC(=O)C1CSC(CC(=O)Nc2ccc(OCC)cc2)C(=O)N1` (stereo not shown), the “hERG current change (%, negative = inhibition) at 10uM” value was -5.69%.
